The whole screen tested about 310,000 compounds, of which about 2,200 (0.71%) showed an effect of 50% or more. The effect is printed as a negative number. The list shows a part of the results.
molecular target: human ether-à-go-go-related gene (hERG) potassium channel (human, UniProt Q12809); experiment: primary screen, population patch clamp on CHO cells stably expressing hERG
Sequence (Q12809 whole entry, looked up): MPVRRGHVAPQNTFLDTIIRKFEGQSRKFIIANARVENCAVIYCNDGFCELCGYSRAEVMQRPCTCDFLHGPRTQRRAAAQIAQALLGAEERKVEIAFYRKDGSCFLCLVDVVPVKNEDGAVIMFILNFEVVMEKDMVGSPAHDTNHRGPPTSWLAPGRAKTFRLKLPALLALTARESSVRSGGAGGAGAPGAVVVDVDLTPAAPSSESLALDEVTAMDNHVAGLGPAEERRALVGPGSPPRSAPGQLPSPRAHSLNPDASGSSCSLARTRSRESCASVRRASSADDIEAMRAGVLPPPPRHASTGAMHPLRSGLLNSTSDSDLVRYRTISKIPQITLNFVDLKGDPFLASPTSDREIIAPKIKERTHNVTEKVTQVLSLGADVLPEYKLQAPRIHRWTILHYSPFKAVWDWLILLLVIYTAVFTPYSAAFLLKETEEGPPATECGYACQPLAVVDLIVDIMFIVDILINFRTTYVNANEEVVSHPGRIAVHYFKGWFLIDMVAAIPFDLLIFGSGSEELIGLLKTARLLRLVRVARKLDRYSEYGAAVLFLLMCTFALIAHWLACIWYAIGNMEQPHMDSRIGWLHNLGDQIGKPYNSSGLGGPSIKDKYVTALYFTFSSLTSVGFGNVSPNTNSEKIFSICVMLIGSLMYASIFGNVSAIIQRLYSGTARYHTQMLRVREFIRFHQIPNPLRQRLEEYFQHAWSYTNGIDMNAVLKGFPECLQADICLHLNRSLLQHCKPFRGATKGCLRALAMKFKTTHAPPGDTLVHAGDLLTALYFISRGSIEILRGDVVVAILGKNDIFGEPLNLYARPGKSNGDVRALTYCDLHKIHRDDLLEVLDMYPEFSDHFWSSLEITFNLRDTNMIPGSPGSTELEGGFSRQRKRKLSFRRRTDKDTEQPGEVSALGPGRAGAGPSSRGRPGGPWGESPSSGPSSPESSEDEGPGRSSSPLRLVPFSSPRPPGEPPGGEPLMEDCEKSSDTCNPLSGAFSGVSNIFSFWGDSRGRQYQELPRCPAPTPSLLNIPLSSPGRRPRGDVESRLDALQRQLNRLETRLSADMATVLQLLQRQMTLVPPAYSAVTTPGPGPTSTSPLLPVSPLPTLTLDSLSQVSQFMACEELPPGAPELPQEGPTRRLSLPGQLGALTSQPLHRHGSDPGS

Compound | hERG current change (%, negative = inhibition) at 1uM [%]
Brc1cccc(OCCN2CCc3ccccc3C2)c1.Cl | 12.1
COc1cccc(C(=O)Nc2ccc(C(=O)NCC3CCCO3)cc2)c1 (stereo not drawn) | 13.7
O=C(O)c1cccc(C(=O)O)c1Br | 7.89
CC1=C(OC(=O)c2ccccc2)C(C)(C)C(c2ccccc2)OC1=O (stereo not drawn) | -3.15
COc1cc(-c2nnc(-c3ccncc3)o2)ccc1OCc1ccccc1 | 10.8
Cc1ccc(S(=O)(=O)N2CCOCC2)cc1NC(=O)Cn1cc(C(F)(F)F)cc(Cl)c1=O | 12.1
CN(C)S(=O)(=O)c1ccc(Cl)c(NC(=O)COc2ccccc2[N+](=O)[O-])c1 | -3.2
COCc1[nH]nc2c1C(c1ccsc1)C(C#N)=C(N)O2 (stereo not drawn) | 7.89
CC(C)c1nc(NCCO)c(C#N)c2c1CCCC2 | 5.98
COCCNC(=O)c1ccccc1NC(=O)c1ccccc1N(C)S(C)(=O)=O | 12.8
Cn1nc(-c2ccccc2)cc1NC(=O)c1ccc(Cl)cc1 | 5.9
c1ccc(OCCSc2nc3ccccc3[nH]2)cc1 | 13.5
NS(=O)(=O)c1ccc(CCNC(=O)c2cc3ccccc3s2)cc1 | 11.7
COc1ccc(NC(=O)Nc2nnc(C(C)(C)C)s2)cc1 | -0.619
CCOC(=O)N1CCN(S(=O)(=O)c2cc(Br)cc3c2N(C(=O)C2CC2)CC3)CC1 | 6.15
Cc1cc(C(=O)CN2C(=O)c3ccccc3C2=O)c(C)n1C1CC1 | 3.7
CCOc1nc(SCCOc2ccccc2)nc(N(C)C)n1 | 5.26
COc1ccc(OCC(=O)NC(=S)Nc2ccc(S(=O)(=O)Nc3cc(OC)nc(OC)n3)cc2)cc1 | 5.34
CC12CCC(C(=O)Nc3ccc4c(c3)OCCO4)(OC1=O)C2(C)C (stereo not drawn) | 9.15
Cc1ccc2[nH]c3c(=O)n(CC(=O)NCCCN4CCN(c5ccc(F)cc5)CC4)ncc3c2c1 | 21.6
Cc1ccc(Nc2nc(CSc3n[nH]c(N)n3)cs2)cc1 | 10.6
C/C(CCc1c[nH]c2ccccc12)=N\O | 7.1
COc1ccc(CNC(=O)/C(C#N)=C2\N=C(NC(=O)c3cccs3)c3ccccc32)cc1 | 7.18

Compound | hERG current change (%, negative = inhibition) at 1uM [%]
Cc1ccc(SC(CC(=O)c2ccc(C)cc2)C(=O)O)cc1 (stereo not drawn) | 9.09
COc1ccc(CN(C(=O)c2ccc(-c3ccccc3)[nH]2)C(C(=O)NCC2CCCO2)c2ccc(C)o2)cc1 (stereo not drawn) | -8.42
COc1ccc(-c2noc(CCCc3ccccc3)n2)cc1OC | 5.83
CCCCOC(=O)CCc1n[nH]c(=O)[nH]c1=O | 0.761
COc1ccc(Nc2nc(-c3cc4cccc(OC)c4oc3=O)cs2)cc1 | 14
O=C(NNC(=O)c1ccco1)c1ccc(NS(=O)(=O)c2cccs2)cc1 | 12.4
O=C(OCC(=O)N(C1CCCCC1)C1CCCCC1)c1ccccc1O | 9.95
O=C(O)c1cccc2c1C(=O)c1ccc(N3CCCCC3)cc1S2(=O)=O | 15.4
COc1ccc(C(=O)NCc2nnc(SCC(=O)Nc3nc4ccccc4s3)o2)cc1 | 12
Cc1cc(C)n(-c2cc(C(=O)O)cc(C(=O)O)c2)n1 | 2.26
COc1ccc(Cl)cc1NCC(=O)Nc1ccc(OC)c(S(=O)(=O)N2CCCCC2)c1 | -1.65
COc1ccc(C(=O)NC(CC(=O)O)c2cc([N+](=O)[O-])ccc2Cl)cc1 (stereo not drawn) | 23.2
COc1ccc(N=Nc2ccc(N)nc2N)cc1 | 14.7
O=C(O)COc1ccc(NC(=O)c2ccc(NC(=O)c3ccco3)cc2)cc1 | 12.7
CCC(=O)NC(C)c1cc(Cl)c2ccccc2c1O (stereo not drawn) | -0.299
CCOc1ccccc1OCCCC(=O)N1CCN(S(=O)(=O)c2cccc(F)c2)CC1 | 10.4
O=C(c1cc2sccc2n1Cc1ccc(F)cc1)N1CCCc2ccccc21 | 16.2
O=S(=O)(c1ccc(NC2CCCc3ccccc32)nc1)N1CCOCC1 (stereo not drawn) | 7.71
Cc1[nH]nc2c1/C(=N/O)CC(c1ccccc1)C2 (stereo not drawn) | 16.4
CCOC(=O)c1c(N)sc(C(O)(C(F)(F)F)C(F)(F)F)c1-c1ccc(Cl)cc1 | 9.96
C=CCNC(=O)CSc1ncc2c(n1)-c1c(csc1SC)CC2 | 8.84
NNc1nc2c(-c3ccc(Cl)cc3)nnn2c2ccccc12 | 2.6

From paper PMC4336329 (PLoS ONE, 2015)
